From PubChem BioAssay AID1508623 (National Center for Advancing Translational Sciences (NCATS), 2021)
Screen size: about 48,000 compounds; about 450 (0.94%) were called active. Another 19% or so got no clear call; they are omitted. Calls come from the whole dose curve; as a rule, active = well fitted inhibition curve with a large enough effect; inconclusive = small, poorly fitted or top-dose-only effect; inactive = no such curve, though single readings can be large or run the other way. This is one part of the list.

Assay: Primary qHTS for Identification of Small Molecule Inhibitors of Huntingtin Promoter Activity; note: nearly all actives have a fitted effect of over 50% in size
Details: HEK293 HTT promoter firefly luciferase reporter (activity 0% = vehicle and -100% = no light), 24 h; series mostly up to 57.5 µM; activity change, negative = inhibition: at the top concentration
Outline: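 HEK293 luciferase promoter-reporter cells (2,500/well) plated 24 h, then compounds added at up to 57.5 uM final for 24 h at 37 °C. Firefly luminescence by Dual-Glo, normalized to vehicle (0%) and zero RLU (-100%).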

Activity change, negative = inhibition, inactive:
COc1cc(CNC(=O)c2cc(-c3ccccc3)n[nH]2)cc(OC)c1OC -12.6%
COc1ccc(-n2nc(C(=O)N3CCC(C)CC3)c3c4ccccc4n(C)c3c2=O)cc1Cl -13.9%
CCc1nn(CC(=O)NCCc2ccc(OC)cc2OC)c(=O)c2cc3sccc3n12 -6.96%
COc1cccc(CNC(=O)Cn2cc3c(n2)-c2c(oc(C(=O)N4CCCC4)c2C)CC3)c1OC -22.7%
CCCc1noc(-c2ccc(N3CCCCC3)c([N+](=O)[O-])c2)n1 -4.97%
COc1cc(NC(=O)Cn2ncc3c(=O)oc4ccccc4c32)cc(OC)c1OC 1.83%
CN(C)S(=O)(=O)N(CC(=O)NCCSCc1ccccc1Cl)c1ccccc1 -22%
Cc1cccc(N2CCN(S(=O)(=O)c3cc(Br)cc4c3N(C(=O)C3CC3)CC4)CC2C)c1 (stereo unspecified) 5.22%
COc1ccc2c(Sc3ccccc3)c(C(=O)NCc3cccc(OC)c3OC)[nH]c2c1 -1.75%
CCOc1ccc(CCNC(=O)CCCc2nnc3n(CC(C)C)c(=O)c4sccc4n23)cc1 -17.4%
CCOC(=O)c1cc(S(=O)(=O)Nc2ccc(OC)c(Cl)c2)[nH]n1 -12.1%
CCOC(=O)C1(C)C=C(Nc2ccc(C(N)=O)cc2)C(=O)N1c1ccccc1 (stereo unspecified) 0.319%
CN1C(=O)Cc2cc(S(=O)(=O)CCC(=O)Nc3cccc(C(F)(F)F)c3)ccc21 0%
CC(C)OCCCn1c(SCc2cccc(Br)c2)nc2c(sc3ccccc32)c1=O -11.4%
Cc1ccc(OC(=O)c2cc(-c3ccccc3)nc3ccc(C)cc23)cc1 -12%
CC(=O)N1c2ccc(S(=O)(=O)NCC3CCC(C(=O)NCCC(C)C)CC3)cc2CC1C (stereo unspecified) -7.17%
COc1ccc(-c2cc(NCc3ccc(F)cc3)n3cnnc3n2)cc1 -27.2%
Cc1cc(OCC(=O)NCC2(N3CCN(C)CC3)CCCCC2)cc(C)c1Cl -17.8%
O=C(Cc1ccccc1)Nc1sc2c(c1C(=O)Nc1ccccc1Cl)CCC2 -18.9%
O=c1[nH]c(=O)n([C@H]2O[C@H](CO)[C@@H](O)[C@@H]2O)cc1/C=C\Br 5.03%
Cc1ccc(NC(=O)CCc2nnc3n(CC(C)C)c(=O)c4ccccc4n23)cc1C -1.11%
Cc1ccc(-n2nc3c(N4CCC(C(=O)N5CCCCC5)CC4)nnc(C)c3c2C)cc1 -22.6%
CCCN1C(=O)C(Cc2nc3ccccc3c(=O)n2CC)c2ccccc21 (stereo unspecified) -8.06%
CCCc1cc(N2CCN(c3cc(Cl)ccc3C)CC2)n2cnnc2n1 -30.3%
COc1ccc(CNC(=O)Cn2nc(C)c3nn(-c4ccc(Cl)cc4)c(C)c3c2=O)cc1 -5.93%
O=S(=O)(c1ccccc1)c1nnn2c1nc(NCc1cccs1)c1sccc12 0.143%
CCCOc1ccc(N2CC(C(=O)Nc3cccc(Cl)c3Cl)CC2=O)cc1 (stereo unspecified) -3.56%
Cc1ccc2oc(C(=O)Nc3c(C(=O)Nc4ccccc4)oc4ccccc34)cc(=O)c2c1 -12.7% [at 11.5 µM]
Cc1ccc(NC(=O)CCn2cccn2)cc1Cl 18%
COc1ccc(NC(=O)Cn2c(=O)n(-c3ccccc3)c(=O)c3c4c(sc32)CCCC4)cc1 -9.07%
CCCCN(C)c1nnc(NC(=O)Nc2cccc(C(C)=O)c2)s1 -1.38%
COC(=O)c1c(NC(=O)c2cc3nc(-c4ccc(OC)cc4)cc(C(F)(F)F)n3n2)sc2c1CCCC2 -15.6%
Cc1ccc(NC2=CC(c3ccccc3F)N(c3ccc(C)cc3)C2=O)cc1 (stereo unspecified) -21.6%
CCOc1ccccc1NC(=O)C(Cc1ccccc1)NS(=O)(=O)c1ccc2c(c1)oc(=O)n2C (stereo unspecified) -17.2%
O=C(CN1C=NS(=O)(=O)c2ccccc21)Nc1ccc(F)cc1 -3.66%
O=C(NCc1cccs1)c1ccc2c(c1)N(Cc1ccccc1Cl)C(=O)c1ccccc1S2 8.33%
COc1ccc(-c2cc(C(=O)OCC(=O)c3ccc(C)cc3)c3cccc(Cl)c3n2)cc1 0.923%
CC(C)Cn1c(=O)c2ccccc2n2c(CCC(=O)NCc3ccccc3Cl)nnc12 -2.79%
O=C(CN1CCNCC1)NC1CCCCC1 -0.765%
CC(=O)NCCNC(=O)CCCc1nnc2n(C)c(=O)c3sccc3n12 2.3%
COc1ccc(CNC(=O)c2cc3cc(C)ccc3n2C)cc1 -21.1%
O=C(NCc1ccccc1Br)c1ccc2nc(N3CCCCC3)sc2c1 -13.9%
CCCCN(CCCC)C(=O)CN(C)S(=O)(=O)c1ccc2c(c1)c(=O)n(C)c(=O)n2C -21.2%
CC(Nc1ccc(-c2nc(-c3ccncc3)no2)cc1[N+](=O)[O-])c1ccccc1 (stereo unspecified) 1.72%
Cc1sc2c(c1C)c(=O)n(CCc1ccccc1)c(=O)n2Cc1cccc(F)c1 -17%
Cc1ccc(-n2c(=O)c3c(c4cc(C)ccc4n3C)n(CC(=O)NCc3ccccc3Cl)c2=O)cc1 -0.914%
O=C(Nc1cc(F)ccc1F)C1CCN(c2nc3ccccc3n3cccc23)CC1 -10.2%
COc1ccc(CCC(=O)NC2CC(=O)N(c3ccc(C)cc3)C2)cc1 (stereo unspecified) -23.5%
CCCCNC(=O)C(CC)Sc1nnc(-c2cccc(F)c2)c(-c2cccc(F)c2)n1 (stereo unspecified) -11.5%
CCCCOC(=O)c1ccc(Nc2ncnc3[nH]ncc23)cc1 -2.72%
Cc1cc(C)cc(N2CC(c3nc(-c4ccccc4C)no3)CC2=O)c1 (stereo unspecified) -16.9%
CC(=O)Nc1c(C)nn(-c2ccccc2)c1N1CCC(C(=O)NCc2ccc(Cl)cc2)CC1 -9.14%
Cc1cccc(NC(=O)Cn2c(=O)n(-c3ccccc3Cl)c(=O)c3c(C)c(C(=O)N(C)C)sc32)c1 -0.279%
Cc1nc2c(C(=O)NCCc3ccc(Cl)cc3)cnn2c(C)c1Cc1c(F)cccc1Cl -1.41%
Cc1ccccc1CNC(=O)C(C)n1nc(C)n2c(cc3occc32)c1=O (stereo unspecified) -4.35%
COc1ccc(CC(=O)Nc2nc3c(s2)CC(C(C)(C)C)CC3)cc1 (stereo unspecified) 9.36%
COc1ccc(NC(=O)C2=CC(c3cccs3)=NS(=O)(=O)N2C)cc1 -30.2%
Cc1ccc(NC(=O)CN2C(=O)CCSc3ccc(S(=O)(=O)N4CCCC4)cc32)cc1 -20.4%
Cc1ccc(-c2nc3c(c(SCC(=O)N4CCCCC4)n2)Cc2cc(C)ccc2O3)cc1 -18.4%
CC(C)=CCC[C@@](C)(O)[C@H]1CC=C(C)CC1 14%
CCn1c(CNC(=O)c2ccc(OC)cc2)nnc1SCC(=O)Nc1ccc(OC)cc1 9.32%
